Test results from patent US20250186550A1 (HAINAN SIMCERE PHARMACEUTICAL, published 2025).

Assays:
[1] = target: T1, human IL-2R alpha protein (Acro, ILA-H52H9) (human, UniProt P01589 22-213, limits assumed); assay: ELISA on coated human IL-2R alpha, anti-human IgG Fc-HRP detection; formulated sample, 25° C., upright, T0
T1 construct: Bought reagent coated on the ELISA plate; also called IL-2Rα; CD25
T1 sequence (looked up): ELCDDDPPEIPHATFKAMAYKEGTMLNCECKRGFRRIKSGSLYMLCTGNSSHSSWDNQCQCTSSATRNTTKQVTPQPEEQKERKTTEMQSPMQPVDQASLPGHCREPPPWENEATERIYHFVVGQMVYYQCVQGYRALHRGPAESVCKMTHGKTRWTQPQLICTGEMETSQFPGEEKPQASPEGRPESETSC
Experimental: (§1) (1) Coating: A carbonate buffer (50 mM Na₂CO₃—NaHCO₃, pH 9.6) with a pH of 9.6 was selected as a coating solution; human IL-2R alpha protein (Acro, ILA-H52H9) was diluted to 0.5 μg/mL with the coating solution; and the mixture was added to an ELISA plate at 100 µL/well and coated at 2-8° C. overnight (>16 h).
(§2) (2) Blocking: After the plate was washed, PBS containing 3% BSA was added to the plate at 300 μL/well, and the plate was blocked at 37° C. for 1 h and then washed.
(§3) (6) After the mixture was washed, a color development solution TMB (Thermo, 34029) was added to the ELISA plate at 100 μL/well; the resulting mixture was reacted at room temperature for 5-9 min in the dark, and then 1 M sulfuric acid was added at 100 μL/well to stop the reaction; and the plate was read within 2 min using a microplate reader, at a measurement wavelength of 450 nm and a reference wavelength of 630 nm.

[2] = target: T1, human IL-2R alpha protein (Acro, …); assay: ELISA on coated human IL-2R alpha, anti-human IgG Fc-HRP detection; formulated sample, 25° C., inverted, T0
Experimental: as §1, §2, §3

[3] = target: T1, human IL-2R alpha protein (Acro, …); assay: ELISA on coated human IL-2R alpha, anti-human IgG Fc-HRP detection; formulated sample, 25° C., upright, 3 M
Experimental: as §1, §2, §3

[4] = target: T1, human IL-2R alpha protein (Acro, …); assay: ELISA on coated human IL-2R alpha, anti-human IgG Fc-HRP detection; formulated sample, 25° C., upright, 4 W
Experimental: as §1, §2, §3

[5] = target: T1, human IL-2R alpha protein (Acro, …); assay: ELISA on coated human IL-2R alpha, anti-human IgG Fc-HRP detection; formulated sample, 2~8° C., upright, T0
Experimental: as §1, §2, §3

[6] = target: T1, human IL-2R alpha protein (Acro, …); assay: ELISA on coated human IL-2R alpha, anti-human IgG Fc-HRP detection; formulated sample, 40° C., inverted, T0
Experimental: as §1, §2, §3

[7] = target: T1, human IL-2R alpha protein (Acro, …); assay: ELISA on coated human IL-2R alpha, anti-human IgG Fc-HRP detection; formulated sample, 40° C., upright, 2 W
Experimental: as §1, §2, §3

[8] = target: T1, human IL-2R alpha protein (Acro, …); assay: ELISA on coated human IL-2R alpha, anti-human IgG Fc-HRP detection; formulated sample, 40° C., upright, 4 W
Experimental: as §1, §2, §3

[9] = target: T1, human IL-2R alpha protein (Acro, …); assay: ELISA on coated human IL-2R alpha, anti-human IgG Fc-HRP detection; formulated sample, 25° C., inverted, 3 M
[10] = target: T1, human IL-2R alpha protein (Acro, …); assay: ELISA on coated human IL-2R alpha, anti-human IgG Fc-HRP detection; formulated sample, 25° C., inverted, 4 W
Experimental: as §1, §2, §3

[11] = target: T1, human IL-2R alpha protein (Acro, …); assay: ELISA on coated human IL-2R alpha, anti-human IgG Fc-HRP detection; formulated sample, 2~8° C., upright, 3 M
[12] = target: T1, human IL-2R alpha protein (Acro, …); assay: ELISA on coated human IL-2R alpha, anti-human IgG Fc-HRP detection; formulated sample, 40° C., inverted, 2 W
Experimental: as §1, §2, §3

[13] = target: T1, human IL-2R alpha protein (Acro, …); assay: ELISA on coated human IL-2R alpha, anti-human IgG Fc-HRP detection; formulated sample, 40° C., inverted, 4 W

- Activity (%) ELISA (relative binding activity = EC50 of the control/EC50 of the test sample x100) [1]: 108%
- Activity (%) ELISA (relative binding activity = EC50 of the control/EC50 of the test sample x100) [2]: 108%
- Activity (%) ELISA (relative binding activity = EC50 of the control/EC50 of the test sample x100) [3]: 102%
- Activity (%) ELISA (relative binding activity = EC50 of the control/EC50 of the test sample x100) [4]: 116%
- Activity (%) ELISA (relative binding activity = EC50 of the control/EC50 of the test sample x100) [5]: 108%
- Activity (%) ELISA (relative binding activity = EC50 of the control/EC50 of the test sample x100) [6]: 108%
- Activity (%) ELISA (relative binding activity = EC50 of the control/EC50 of the test sample x100) [7]: 92%
- Activity (%) ELISA (relative binding activity = EC50 of the control/EC50 of the test sample x100) [8]: 103%
- Activity (%) ELISA (relative binding activity = EC50 of the control/EC50 of the test sample x100) [9]: 105%
- Activity (%) ELISA (relative binding activity = EC50 of the control/EC50 of the test sample x100) [10]: 99%
- Activity (%) ELISA (relative binding activity = EC50 of the control/EC50 of the test sample x100) [11]: 95%
- Activity (%) ELISA (relative binding activity = EC50 of the control/EC50 of the test sample x100) [12]: 98%
- Activity (%) ELISA (relative binding activity = EC50 of the control/EC50 of the test sample x100) [13]: 95%
B1: IL2 mutant 1-2-linker-Fc (V91R/Y31V/A73L/H79Q) (Fc fusion)
chain: APTSSSTKKTQLQLEHLLLDLQMILNGINNVKNPKLTRMLTFKFYMPKKATELKHLQCLEEELKPLEEVLNLLQSKNFQLRPRDLISNINRIVLELKGSETTFMCEYADETATIVEFLNRWITFAQSIISTLTGGGGSGGGGSGGGGS[human IgG1 Fc with changes skipped]
notes: Expressed in CHO cells; also called IL2-1-2; IL2 mutant fusion protein
